Laboratory results from the supplement of paper PMC7125110.
± gives the standard error. This sample is rich in variants without activity.

B1: glmS ribozyme (parent)
chain: AUAAAAGCGCCAGAACUACAGAAAUGUAGUUGACGAGGAGGAGGUUUAUCGAAUUUUCGGCGGAUGCCUCCAAA

Assays:
Details in all cases: with glucosamine-6-phosphate
glucosamine-6-phosphate [1] = variants of: B1; assay: self-cleavage kobs at 40 uM GlcN6P; higher = faster cleavage; RNA array
Method in brief: (§1)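 Tiles bearing barcoded ribozyme variants, transcribed in situ by E. coli RNA polymerase on sequenced MiSeq chips, were imaged over ~14 h at 37 °C using a hybridised Cy3 probe. Glucosamine-6-phosphate was supplied at 40 μM to 10 mM in HEPES/KCl/Mg(OAc)2 buffer. kobs came from one- or two-exponential decay fits to normalised per-tile medians, and weighted Michaelis–Menten fits then provided kcat and KM.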

glucosamine-6-phosphate [2] = variants of: B1; assay: self-cleavage kobs at 640 uM GlcN6P; higher = faster cleavage; RNA array
Method in brief: as §1

glucosamine-6-phosphate [3] = variants of: B1; assay: self-cleavage kobs at 160 uM GlcN6P; higher = faster cleavage; RNA array
Method in brief: as §1

glucosamine-6-phosphate [4] = variants of: B1; assay: self-cleavage kobs at 2500 uM GlcN6P; higher = faster cleavage; RNA array
Method in brief: as §1

glucosamine-6-phosphate [5] = variants of: B1; assay: self-cleavage kobs at 10000 uM GlcN6P; higher = faster cleavage; RNA array
Method in brief: as §1

Variant	self-cleavage kobs at 40 uM GlcN6P (glucosamine-6-phosphate [1])	self-cleavage kobs at 640 uM GlcN6P (glucosamine-6-phosphate [2])	self-cleavage kobs at 160 uM GlcN6P (glucosamine-6-phosphate [3])	self-cleavage kobs at 2500 uM GlcN6P (glucosamine-6-phosphate [4])	self-cleavage kobs at 10000 uM GlcN6P (glucosamine-6-phosphate [5])
AUAAAAGCGCCAGUACUACAGAAAUGUAGUUGACGAGGAGGAGGUUUAUCGAAUUUUCGGCGGAUGCCCCCAAA	0.000126 ± 2.3e-05 s⁻¹	0.000362 ± 4.8e-05 s⁻¹	0.000147 ± 2.2e-05 s⁻¹	0.000501 ± 0.00015 s⁻¹	0.00132 ± 0.00026 s⁻¹
AUAAAAGCGCCAGACCUACAGAAAUGUAGUUGACGAGGAGGAGCUUUAUCGAAUUUUCGGCGGAUGCCUCCAAA	< 1e-05 s⁻¹	< 1e-05 s⁻¹	< 1e-05 s⁻¹		
AUAAAAGCGCCAGACCUACAGAAAUGUAGUAGACGAGGAGGAGGUUUAUCGAAUUUUCGGCGGAUGCCUCCAAA	0.000156 ± 2.2e-05 s⁻¹	0.0015 ± 0.00035 s⁻¹	0.000607 ± 0.00013 s⁻¹	0.00303 ± 0.00078 s⁻¹	0.0067 ± 0.001 s⁻¹
AUAAAAGCGCCAGAGCUACAGAAAUGUAGUUGGCGAGGAGCAGGUUUAUCGAAUUUCCGGCGGAGGCCUUCAAA	< 1e-05 s⁻¹	< 1e-05 s⁻¹	< 1e-05 s⁻¹	< 1e-05 s⁻¹	
AUAAAAGCGCCAGACCUACAGAAAUGUAGUUGACGAGGAGAUGGUUUAUCGAAUUUUCGGCGGAUGCCUCGAAA	< 1e-05 s⁻¹				
AUAAAAGCGCCAGACCUACAGAAAUGUAGUCGACGAGGAGGCGGUUUAUUGAAUUUUCGGCGGAUGCCUCCAAA	< 1e-05 s⁻¹				
AUAAAAGCGCCAGACCUACAGAAAUGUAGUUGACGAGUAGAAGGUUUAUCGAAUUUUCGGCGGAUGCCUCCAAA	< 1e-05 s⁻¹				< 1e-05 s⁻¹
AUAAAAGCGCCAGACGUACAGAAAUGUAGUUGACGAAGAGGAGGUUUAUCGAAUUUUCGGCGGAUGCCUCUAAA	< 1e-05 s⁻¹				
AUAAAAGCGCCAGACCUACAGAAAUGUAGUUGACAAGGAGAAGAUUUAUCGAAUUUUCGGCGGAUGCCUCCAAA	< 1e-05 s⁻¹			< 1e-05 s⁻¹	
AUAAAAGCGCCAGACCUACAGAAAUGUAGUUGACGAGGAGGAGGUUUAUCGUGUUCUCGGCGGAUGCCUCCAAA	< 1e-05 s⁻¹				
AUAAAAGCGCCAGACCUACAGAAAUGUAGAUGACGAGGAGGUGGUUUAUCGAAUUUUCGGCGUAUGCCUCCAAA	< 1e-05 s⁻¹				
AUAAAAGCGCCAGACCUACAGAAAUGUAGUUGACGAUGAGGAGGUUUAUCGAAUUUUCGGCGGAUGCCUCCAAA	< 1e-05 s⁻¹	< 1e-05 s⁻¹			< 1e-05 s⁻¹
AUAAAAGCGCCAGACCUACAGAAAUGUAGUUGACGAGGAGGAAGUUUAUCGAAUUUUCGGCGGAUGCCUCCAAA	< 1e-05 s⁻¹	< 1e-05 s⁻¹	< 1e-05 s⁻¹		
AUAAAAGCGCCAGACCUACAGAAAUGUAGUUGAUGAGGAGGAGGUUUAUCGAAUUUUCGGCGGAUGUCUUCAAA	< 1e-05 s⁻¹				
AUAAAAGCGCCAGACCUACAGAAAUGUAGUUGACGAGGCGGAGGUUUAUCGAAUUUUCGGCGGAUGCGUCCAAA	< 1e-05 s⁻¹	< 1e-05 s⁻¹	< 1e-05 s⁻¹		< 1e-05 s⁻¹
AUAAAAGCGCCAGACCUACAGAAAUGUAGUUGACGAGGAGGAGGUUUAUCGAAUUUUCGGCGAAUGCCUCCAAA	< 1e-05 s⁻¹	< 1e-05 s⁻¹			< 1e-05 s⁻¹
AUAAAAGCGCCAGACCUACAGAAAUGUAGUUGACGAGGAGGAGGUUGAUCAAAUUCUCGGCGGAUGCCUCCAAA	< 1e-05 s⁻¹			< 1e-05 s⁻¹	< 1e-05 s⁻¹
AUAAAAGCGCCAGACCUACAGAAAUGUAGUUGACGAGGAGGAGGUUUAUCGAAAUUUCGGCGGAUGCCUCCAAA	0.000164 ± 2.4e-05 s⁻¹	0.0012 ± 0.00025 s⁻¹	0.000559 ± 0.00011 s⁻¹		
AUAAAAGCGCCAGACCUACAGAAAUGUAGUUGACGAGGAGGAGGUUUAUCGCAUUUUCGGCGGAUGCCUCCAAA	< 1e-05 s⁻¹	< 1e-05 s⁻¹	< 1e-05 s⁻¹	< 1e-05 s⁻¹	< 1e-05 s⁻¹
AUAAAAGCGCCAGUACUACAGAAAUGUAGUUGACGAGGAGGAGGUUUAUCGAAUGUUCGGGGGAUGCCUCCAAA	< 1e-05 s⁻¹				
AUAAAAGCGCCAGACCUACAGAAAUGUAGUUGACGAGAAGGAGGUUUAUCGAAUUUGCGGCGGAUGCCUCCAAA	< 1e-05 s⁻¹				
AUAAAAGCGCCAGACCUACAGAAAUGUAGUUUACGAGGAGGUGGUUUAUCGAAUUUUCGGCGGAUGCCUCCAAA	< 1e-05 s⁻¹				< 1e-05 s⁻¹
AUAAAAGCGCCAGACCUACAGAAAUGUAGUUGACGACGAAGAUGUUUAUCGAAUUUUCGGCGGAUGCCUCCAAA	< 1e-05 s⁻¹				
AUAAAAGCGCCAGAGCUACAGAAAUGUAGUUGACGGGGAGGAGUUUUAUCGAAUUUUCGGCGGAUGCCUCCAAA	< 1e-05 s⁻¹				
AUAAAAGCGCCAGACCUACAGAAAUGUAGUUGACGAGGAGGAGGUUUAUCGAAUUUUCGGUGGAUGCCGCCAAA	< 1e-05 s⁻¹				< 1e-05 s⁻¹
AUAAAAGCGCCAGACCUACAGAAAUGUAGUUGACGAGGAGGAGGUUUAUCGAAUUUUCGGCGGAUGCAUCCAAA	< 1e-05 s⁻¹				
AUAAAAGCGCCAGACCUACAGAAAUGUAGUUGACGAGGAGGAGGUUUAUCGAAUUUUCGGCCGAUGCCUCCAAA	< 1e-05 s⁻¹	< 1e-05 s⁻¹	< 1e-05 s⁻¹	< 1e-05 s⁻¹	< 1e-05 s⁻¹
AUAAAAGCGCCAGACCUACAGAAAUGUAGUUGACGAGGAGGAGGUUUAUCGAAUUUUCGGCUGAUGCCUCCAAA	< 1e-05 s⁻¹			< 1e-05 s⁻¹	< 1e-05 s⁻¹
AUAAAAGCGCCAGACCUACAGAAAUGUAGUUGACGAGGAAGAGGUUUAUCGAAUUUUCGGCGGAUGCCUCCAAA	2.42e-05 ± 9.8e-06 s⁻¹				
AUAAAAGCGCCAGACCUACAGAAAUGUAGUUGACGAGGAGGAGGUUAAUCGAAUUUUCGGCGGAUGCCUCCAAA	0.000116 ± 1.4e-05 s⁻¹	0.000773 ± 0.00011 s⁻¹	0.000266 ± 5.3e-05 s⁻¹	0.00226 ± 0.00034 s⁻¹	0.00367 ± 0.00044 s⁻¹
